Source: the supplement of paper PMC3334620
In all, about 33,000 sequences were measured (“E-score (-0.5 to 0.5)”: median about -0.021, highest 2% from about 0.32 on). Some of the results follow.

Target: T1, Zap1 (UniProt P47043)
T1 sequence: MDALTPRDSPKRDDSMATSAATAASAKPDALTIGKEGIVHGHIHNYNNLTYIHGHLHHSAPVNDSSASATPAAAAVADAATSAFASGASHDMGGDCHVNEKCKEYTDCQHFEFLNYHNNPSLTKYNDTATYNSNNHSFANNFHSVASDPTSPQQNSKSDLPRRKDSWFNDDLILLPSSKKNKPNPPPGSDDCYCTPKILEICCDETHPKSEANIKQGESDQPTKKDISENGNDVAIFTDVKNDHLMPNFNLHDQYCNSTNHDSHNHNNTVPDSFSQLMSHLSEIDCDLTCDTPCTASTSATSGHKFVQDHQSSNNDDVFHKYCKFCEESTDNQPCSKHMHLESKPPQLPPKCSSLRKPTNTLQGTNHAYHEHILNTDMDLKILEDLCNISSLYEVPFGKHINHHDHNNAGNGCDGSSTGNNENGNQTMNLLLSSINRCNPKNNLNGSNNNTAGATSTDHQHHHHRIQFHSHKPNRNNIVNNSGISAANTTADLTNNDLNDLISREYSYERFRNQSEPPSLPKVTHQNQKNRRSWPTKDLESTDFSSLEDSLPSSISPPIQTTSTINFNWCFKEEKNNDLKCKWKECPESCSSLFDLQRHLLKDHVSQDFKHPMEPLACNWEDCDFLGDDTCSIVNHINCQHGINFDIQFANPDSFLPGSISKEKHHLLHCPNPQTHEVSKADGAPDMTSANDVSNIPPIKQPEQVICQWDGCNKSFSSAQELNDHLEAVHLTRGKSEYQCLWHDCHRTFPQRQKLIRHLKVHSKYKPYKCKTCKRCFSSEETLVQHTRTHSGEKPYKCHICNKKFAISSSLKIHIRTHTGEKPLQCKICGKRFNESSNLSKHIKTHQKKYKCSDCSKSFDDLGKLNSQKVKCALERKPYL
Assay: PBM E-score (8-mer binding enrichment) (E-score (-0.5 to 0.5)); higher = stronger / more preferred TF binding; most listed sequences are background and not binding sites
Conditions: protein concentration: 200 nM; construct: GST-full length
In short: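 Universal all-10-mer Agilent arrays, double-stranded by primer extension on fresh or once-stripped slides, were probed with about 100-200 nM GST-tagged yeast transcription factors made by PURExpress. Fluorescent anti-GST detected bound protein, and masliner normalised the scans. E-scores from the Universal PBM Analysis Suite were given to each ungapped eight-base word pooled with its reverse complement.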

Row | Sequence | PBM E-score
1 | ACTAGCAA | -0.144
2 | CCACACAA | 0.104
3 | CGTGGTGA | -0.142
4 | CGGCGCGA | 0.0413
5 | ACCCGATA | 0.219
6 | AGCCCACT | -0.264
7 | CTTGTAGC | 0.014
8 | ACGCGGAC | -0.0389
9 | GCTGGTAC | 0.118
10 | CCACGCCA | -0.0164
11 | AGCCCCCT | -0.406
12 | GTCGTAGA | -0.199
13 | ACGCAGTA | -0.11
14 | CCGTGAGA | -0.0689
15 | CTCTGCTA | -0.252
16 | GGATGTCA | 0.144
17 | ATCACTGG | 0.0331
18 | CACGTTTC | -0.207
19 | ATGCTCAA | -0.229
20 | ATCTTGCG | -0.0918
21 | GGACACAA | 0.23
22 | CAGTCGCG | -0.196

Row | Sequence | PBM E-score
23 | CATCATAG | -0.0242
24 | ATAGCGGG | -0.129
25 | CCTACCAC | 0.0696
26 | CCCTATCG | 0.0222
27 | ATTCCGAA | 0.111
28 | ATGGGAAC | 0.0678
29 | ACTTAGTC | -0.299
30 | GCATCTAA | -0.0494
31 | CGTCCTTC | -0.165
32 | TCTAGCAA | 0.00871
33 | CGTATAGA | -0.108
34 | AGAAAGGC | -0.101
35 | CACGGAAC | -0.0674
36 | ACTGTAAG | 0.205
37 | ACTTAAAT | 0.0411
38 | TATAGTGA | -0.0293
39 | CGCCCACC | 0.0732
40 | GTGTTAAC | 0.0909
41 | TCGTAGCA | -0.0581
42 | GGAGAGAC | -0.0329
43 | AGCTTGTA | 0.01
44 | GCCCTACA | -0.0544

Row | Sequence | PBM E-score
45 | ACTTAGAC | -0.0119
46 | ATAAAGAT | 0.00332
47 | AGGCGGGA | -0.238
48 | CAAGCGTC | -0.108
49 | ATGGCTAC | 0.11
50 | CATGCGGG | -0.0115
51 | GAGACATC | -0.215
52 | GACTACTA | -0.0139
53 | CTATAAGC | -0.0344
54 | AAGAAAAT | 0.0655
55 | CGCAATCA | 0.0503
56 | CAGGTACG | 0.0402
57 | GCGCGGAA | 0.137
58 | CAGGTGTA | -0.0735
59 | GCTGCGTA | -0.0158
60 | GAGACGCA | -0.166
61 | GAAGGGCC | -0.00816
62 | GTCCAATA | -0.0429
63 | CAGTGAAC | 0.0317
64 | ACTTTCAA | 0.311
65 | GTAACCAA | 0.417
66 | GATAAGAC | -0.049

Row | Sequence | PBM E-score
67 | ACACCGGA | -0.0634
68 | GCCTGCGC | -0.183
69 | GACGTAAA | -0.0625
70 | AGTACCTG | 0.171
71 | CCATTCTA | 0.147
72 | ACTTCGTG | -0.0575
73 | TATCGTCA | -0.012
74 | CGAAAATC | 0.0616
75 | AGCTACAT | -0.263
76 | ACGCGGCT | -0.0407
77 | CGAGATCA | 0.0314
78 | CCACTCCA | -0.122
79 | CATTGCCA | -0.112
80 | AGCCGACG | -0.253
81 | TCAAGCAA | -0.0274
82 | CCGCGTGA | 0.133
83 | CTTCGGGA | -0.193
84 | ACAATGGT | 0.0633
85 | GAATGGTC | -0.0042
86 | CCATAGTC | -0.0427
